# In all, about 340,000 compounds went through this assay and about 12,000 (3.5%) were called active. Inconclusive means that the source gave no clear call. Such entries were picked first, then a sample of the others. Calls come from the whole dose curve; as a rule, active = well fitted inhibition curve with a large enough effect; inconclusive = small, poorly fitted or top-dose-only effect, or another doubt; inactive = no such curve, though single readings can be large or run the other way. Potencies of inconclusive entries are left out as doubtful fits.
# Assay: qHTS Assay for Inhibitors of Hepatitis C Virus (HCV)
# Conditions: Huh7.5.1 HCVcc-Cre (HCVcc is cell-culture hepatitis C virus) infection, luciferase reporter, 44 h; activity change, negative = inhibition: at 41.8 µM (top of the series) unless noted
# Summary of the method: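 After 44 h co-culture of compound, cells and HCVcc-Cre (~0.5 moi), substrate is added for 15 min at room temperature and luciferase measured over 15 sec. Cells were seeded at 1,000/well and pre-cultured 4 h.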
# % is set by controls: 0 for no effect and ±100 for the full control effect; potency is the fitted concentration of half-maximal effect; tags give direction and shape of the fitted curve.
SMILES,"activity change, negative = inhibition",Potency
Cc1cccc(NCC(=O)N/N=C/c2cccc(Br)c2)c1,inactive: -10.4%,
CN(CC(=O)Nc1cccc(F)c1)C(=O)c1cc([N+](=O)[O-])ccc1N1CCCCC1,,"inconclusive [inhibitor, single point]"
O=C(COC(=O)c1cccc2c1C(=O)c1ccccc1C2=O)NC1CCCCC1,,"inconclusive [inhibitor, partial curve]"
CN(C)c1nc(OCCNC(=O)Nc2ccccc2)nc(N(C)C)n1,inactive: -9.95%,
COc1cc(-c2noc(C)c2C#Cc2nccn2C)cc(OC)c1OC,,"inconclusive [inhibitor, partial curve]"
Cc1cc(SCC(=O)N2CCCC2)nc2ccccc12,inactive: -14.1%,
Cc1nnc(-c2cccc(Br)c2)c2cn(-c3ccc(Br)cc3)nc12,,active: 11.2 µM
CN1CCN(C2Cc3ccccc3Sc3cc(C(F)(F)F)ccc32)CC1 (centres undefined),,active: 11.2 µM
Cc1ccc(NC(=O)c2ccccc2OCC(=O)Nc2ccccc2F)cc1S(=O)(=O)N(C)C,,"inconclusive [inhibitor, partial curve]"
c1ccc2[nH]c(-c3ccc4c(c3)OCO4)nc2c1,inactive: -4.08%,
Cc1cc(C(=O)CSc2nn(-c3ccccc3)c(=S)s2)c(C)n1Cc1ccco1,,"inconclusive [inhibitor, partial curve]"
Cn1c(=O)c(C(=O)COc2ccc(F)cc2Cl)c(N)n(Cc2ccccc2)c1=O,,"inconclusive [inhibitor, partial curve, poor fit]"
Cn1c(=O)c2c(nc(N3CCN(c4ccccn4)CC3)n2Cc2ccccc2Cl)n(C)c1=O,,"inconclusive [inhibitor, single point]"
COc1ccccc1N(C)S(=O)(=O)c1ccc(C(=O)NC2CCCCCC2)cc1,,active: 11.2 µM
CC(C)c1ccc(OCC(=O)Nc2ccc3oc(=O)ccc3c2)cc1,,"inconclusive [inhibitor, single point]"
CCC(=O)Nc1nc(C)c(-c2csc(Nc3ccccn3)n2)s1,,active: 11.2 µM
COc1ccc(-n2c(=S)[nH]c3cc(C(=O)Nc4ccc(OC)c(OC)c4)ccc3c2=O)cc1,,"inconclusive [inhibitor, partial curve]"
COc1ccc(NC(=O)c2c(C(F)(F)F)nn(C)c2SCc2ccccc2Cl)cc1,inactive: -6.12%,
Cc1nc(Nc2cccc(C(C)O)c2)c2nnn(Cc3ccccc3F)c2n1 (centres undefined),,"inconclusive [inhibitor, partial curve]"
Cc1ccc(NC(=O)Nc2ccccc2F)cc1S(=O)(=O)N1CCOCC1,,"inconclusive [inhibitor, single point]"
COc1ccc(CCN2C(=S)N(c3ccc(Cl)cc3)C(=O)C2CC(N)=O)cc1OC (centres undefined),,"inconclusive [inhibitor, partial curve]"
COc1cc(/C=C/C(=O)NCC2CCCCC2)cc(OC)c1OC,,"inconclusive [inhibitor, single point]"
CCC(=O)Nc1cccc(C(=O)/C=C/c2cc(Br)ccc2OC)c1,,active: 11.2 µM
CCCCN1CN(Cc2ccccc2)CNC1=S,inactive: 40.6%,
CC(C)(C)c1ccc(OCCN2CCCC2)cc1,inactive: 0.319%,

SMILES,"activity change, negative = inhibition",Potency
NC(=O)c1cc(S(=O)(=O)NCCc2ccc(S(N)(=O)=O)cc2)cs1,,"inconclusive [inhibitor, single point]"
N/C(=N/OC(=O)c1ccccc1Cl)c1ncc([N+](=O)[O-])s1,,active: 11.2 µM
Cc1c(C(=O)N2CCN(S(=O)(=O)c3ccccc3)CC2)oc2ccccc12,,"inconclusive [inhibitor, single point]"
CN=c1scc(-c2ccc(OC)cc2)n1/N=C(\C)c1cccnc1,,"inconclusive [inhibitor, full curve, poor fit]"
COc1ccc(Cc2nc3ccc(C(=O)NC(C)C)cc3o2)cc1,inactive: -2.37%,
COc1ccccc1NC(=O)Nc1ccc(Br)cn1,,"inconclusive [inhibitor, partial curve, poor fit]"
N#CCSc1ncnc2ccccc12,,"inconclusive [inhibitor, single point]"
CN(C(=O)CSc1nnc(-c2cccc(F)c2)n1N)C1CCS(=O)(=O)C1 (centres undefined),inactive: 19.3%,
CCCCC(=O)N/N=C/c1ccc(N2CCOCC2)c([N+](=O)[O-])c1,inactive: -28.1%,
CCCCn1c(O)c(C(CC)=NC(C)c2ccccc2)c(=O)[nH]c1=O (centres undefined),,"inconclusive [inhibitor, single point]"
NS(=O)(=O)c1ccc(CCNC(=O)CSc2nc3ccsc3c(=O)n2CC(=O)O)cc1,inactive: 23.1%,
COc1cccc(NC(=O)CCC2CCN(Cc3nccs3)CC2)c1,inactive: -8.24%,
CN1CCN(C2=Cc3ccc(Cl)cc3Sc3ccc(F)cc32)CC1,,"inconclusive [inhibitor, single point]"
COc1cccc(-c2nc(N3CC(C)CC(C)C3)c3ccccc3n2)c1O (centres undefined),,active: 14.1 µM
Cc1ccc(C)c(N2CCN(C(=O)C3CCN(S(=O)(=O)c4cccc5nsnc45)CC3)CC2)c1,,"inconclusive [inhibitor, partial curve]"
Cc1cc(OCCOc2cccc3cccnc23)cc(C)c1Cl,,"inconclusive [inhibitor, single point]"
COc1ccc(CCNC(=O)c2cc3c(=O)n4cccc(C)c4nc3n(Cc3ccco3)c2=N)cc1OC,,active: 11.2 µM
Cc1ccsc1C(=O)NCCc1nnc2ccccn12,,"inconclusive [inhibitor, single point]"
Cc1cc(C)nc(N/N=C/C2=C(N3CCOCC3)C(=C/c3ccccc3)/CC2)n1,,"inconclusive [inhibitor, single point]"
CC1Cc2ccccc2N1S(=O)(=O)c1cccc(C(=O)NCC(c2ccco2)N2CCCC2)c1 (centres undefined),,"inconclusive [inhibitor, full curve]"
CCc1ccc(/C=c2\s/c(=C\C(=O)C(C)(C)C)[nH]c2=O)cc1,,"inconclusive [inhibitor, partial curve]"
O=[N+]([O-])c1ccc(Oc2cccc(F)c2)c2ccncc12,,active: 3.98 µM
CSc1ccccc1NC(=O)COC(=O)CCc1ccccc1,inactive: 7.81%,
COc1ccc(-n2c(Cc3cccn3C)nnc2SCC(=O)Nc2cccc(OC)c2)cc1,,inactive
C/C(=N\NC(=O)c1cccc([N+](=O)[O-])c1)c1ccco1,inactive: -1.04%,

SMILES,"activity change, negative = inhibition",Potency
Cc1ccc(NC(=O)CSc2nc3nn(-c4ccccc4)c(=O)c-3c3n2CCCCC3)cc1F,,"inconclusive [inhibitor, partial curve]"
CCc1nc2scc(-c3ccc(C)cc3)c2c(=O)n1N,inactive: -23.4%,
CCOC(=O)/C=C/C(=O)N1CCN(C(=O)/C=C/C(=O)OCC)CC1,,"inconclusive [inhibitor, partial curve]"
CCCCCn1c(Sc2ccccc2)nc2c1c(=O)[nH]c(=O)n2C,inactive: -6.13%,
CCOc1cccc(/C=C/c2ccc3cccc(O)c3n2)c1OC,,"inconclusive [inhibitor, single point]"
O=C(COc1ccccc1)N1CCN(c2ncnc3c2cnn3-c2ccccc2)CC1,,"inconclusive [inhibitor, single point]"
CC(Oc1ccc(Cl)cc1Cl)c1nc(-c2ccc(NC(=O)c3ccco3)cc2)no1 (centres undefined),,"inconclusive [inhibitor, partial curve]"
CC(C)(C)c1ccc(C(=O)Nc2cnccn2)cc1,inactive: 7.48%,
Cc1ccc(C(=O)Nc2ccc(N3CCN(C(=O)c4ccco4)CC3)cc2)c(Cl)c1,,active: 11.2 µM
Cc1cc(NC(=O)c2sccc2C)n(-c2nc3ccccc3[nH]2)n1,,active: 11.2 µM
CCOc1ccc(CNC(=O)CCC(=O)n2ncc3ccc(Cl)cc32)cc1,inactive: 10%,
Cc1ccc(C)c(C(C)NC(=S)NCc2ccc(F)cc2)c1 (centres undefined),,"inconclusive [inhibitor, single point]"
CCC(CO)Oc1cc(NC(=O)c2ccc(N)cc2)c2ncn(C(C)C)c2c1 (centres undefined),,"inconclusive [inhibitor, single point]"
N#C/C(=C\c1ccccc1)C(=O)NNS(=O)(=O)c1cccc([N+](=O)[O-])c1,inactive: 4.27%,
Cc1c(C(=O)C(=O)N2c3ccccc3CC2C)c2ccccc2n1C (centres undefined),inactive: -28.8%,
CC(C)n1c(CN(C)Cc2ccccc2)nc2c1c(=O)n(C)c(=O)n2C,,"inconclusive [inhibitor, full curve]"
CCCCCSc1cc(OC)c(CCNC)cc1OC,,"inconclusive [inhibitor, single point]"
CCOC(=O)[C@H]1[C@H]2COc3ccc(C)cc3[C@@H]2N2C(=O)CN(Cc3ccc(OC)cc3)C(=O)[C@@]12C,inactive: -0.743%,
Clc1cccc(Nc2ncnc3c2cnn3-c2ccccc2)c1,,active: 11.2 µM
COc1cc(-c2cc(-c3ccccc3)nc(SCC(=O)Nc3nccs3)c2C#N)cc(OC)c1OC,inactive: -22.9%,
Cc1ccc2cc(CCNS(=O)(=O)c3ccc(F)cc3)c(=O)[nH]c2c1,,"inconclusive [inhibitor, single point]"
CCOC(=O)c1c(NC(=O)c2ccco2)n(C2CCCCC2)c2nc3ccccc3nc12,,"inconclusive [inhibitor, single point]"
CC(=O)c1c(C)[nH]c(C(=O)CSc2nnc(-c3ccccc3)n2Cc2ccc3c(c2)OCO3)c1C,,"inconclusive [inhibitor, single point]"
NNC(=O)[C@H](Cc1ccccc1)NC(=O)NCCc1ccccc1,inactive: 3.26%,
